According to the supplement of paper PMC3334620:
Whole data set: some 33,000 sequences, median “E-score (-0.5 to 0.5)” near -0.035, cut for the highest 2% near 0.35. Some of the results follow.

Each sequence was assayed against T1, Pdr3 (UniProt P33200) (assay: PBM E-score (8-mer binding enrichment) (E-score (-0.5 to 0.5)); higher = stronger / more preferred TF binding; most listed sequences are background and not binding sites). Conditions: protein concentration: 200 nM; construct: GST-full length.
T1 sequence: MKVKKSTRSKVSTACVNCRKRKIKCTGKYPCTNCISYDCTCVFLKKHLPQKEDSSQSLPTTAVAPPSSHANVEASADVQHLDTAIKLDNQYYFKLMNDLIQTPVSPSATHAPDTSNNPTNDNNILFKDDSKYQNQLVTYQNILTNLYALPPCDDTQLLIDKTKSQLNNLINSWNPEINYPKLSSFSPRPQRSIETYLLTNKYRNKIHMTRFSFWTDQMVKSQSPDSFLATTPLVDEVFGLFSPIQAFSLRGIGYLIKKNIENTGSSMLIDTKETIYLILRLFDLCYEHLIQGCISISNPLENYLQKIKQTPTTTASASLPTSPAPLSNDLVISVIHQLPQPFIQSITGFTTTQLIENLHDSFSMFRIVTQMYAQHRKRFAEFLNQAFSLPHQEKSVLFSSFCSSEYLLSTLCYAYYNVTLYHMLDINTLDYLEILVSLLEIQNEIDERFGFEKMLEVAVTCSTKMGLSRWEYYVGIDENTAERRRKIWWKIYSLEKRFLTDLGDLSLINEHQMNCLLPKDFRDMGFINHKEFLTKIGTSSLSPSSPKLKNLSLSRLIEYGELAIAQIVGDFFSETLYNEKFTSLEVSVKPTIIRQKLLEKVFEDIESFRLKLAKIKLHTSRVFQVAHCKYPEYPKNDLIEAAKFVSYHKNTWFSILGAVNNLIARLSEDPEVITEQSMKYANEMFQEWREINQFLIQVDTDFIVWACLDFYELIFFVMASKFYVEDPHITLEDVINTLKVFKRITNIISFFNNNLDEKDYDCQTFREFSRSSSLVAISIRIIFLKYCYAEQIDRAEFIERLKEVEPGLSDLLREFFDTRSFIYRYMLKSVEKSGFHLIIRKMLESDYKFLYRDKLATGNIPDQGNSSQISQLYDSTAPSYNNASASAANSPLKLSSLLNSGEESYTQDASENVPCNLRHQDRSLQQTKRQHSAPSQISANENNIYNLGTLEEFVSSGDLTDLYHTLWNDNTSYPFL
Method in brief: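 Universal all-10-mer Agilent arrays, double-stranded by primer extension on fresh or once-stripped slides, were probed with about 100-200 nM GST-tagged yeast transcription factors made by PURExpress. Fluorescent anti-GST detected bound protein, and masliner normalised the scans. E-scores from the Universal PBM Analysis Suite were given to each ungapped eight-base word pooled with its reverse complement.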

| Sequence | PBM E-score |
| --- | --- |
| CAGATATC | -0.0706 |
| ACGGTGCC | 0.0198 |
| ACAAAGTC | -0.0159 |
| CCGCTGAC | 0.0773 |
| AGTGAAAA | 0.109 |
| ACCTAGGT | -0.246 |
| CCCGCACG | 0.206 |
| CGTCGGAG | 0.178 |
| GGGCGCCC | 0.33 |
| CACGTCTC | -0.0106 |
| ATAAACCG | 0.179 |
| CTAATGCA | 0.00839 |
| ACCCTTTC | -0.119 |
| ACAGACGC | -0.0168 |
| GAACGTGA | 0.15 |
| GCCTCGTA | -0.126 |
| CACCTGCA | -0.142 |
| GTAGCCGA | -0.0719 |
| CATGCTAA | -0.141 |
| GACGCTCC | 0.0552 |
| AACCGACC | 0.143 |
| ATGCTGAG | -0.198 |

| Sequence | PBM E-score |
| --- | --- |
| CAACGCAG | -0.00259 |
| GAATAACC | -0.128 |
| GCCTGAAA | 0.00211 |
| GCGCACCC | 0.21 |
| ACACACGG | 0.179 |
| AGACGTTC | -0.0259 |
| ATGCGCCA | -0.0436 |
| ACCTAAAG | -0.12 |
| CCAAACCG | 0.225 |
| GTCAAGAC | -0.202 |
| GCTCCGAC | 0.0362 |
| ATTCTGCA | -0.0488 |
| ATCTGGGC | -0.055 |
| GCAGTCCA | -0.109 |
| ATTGTGGG | -0.00957 |
| AGCGCGAT | 0.117 |
| CTTATCGC | 0.0776 |
| TGGCACCA | -0.116 |
| GACCGCAC | -0.0765 |
| ACGGTTCC | 0.252 |
| ACTCCGTA | 0.13 |
| AGACCAGC | -0.164 |

| Sequence | PBM E-score |
| --- | --- |
| CAAGATAA | 0.0303 |
| ATATGTAA | -0.259 |
| ATAATGGG | 0.0544 |
| CGGACGAC | 0.196 |
| ATCGACTA | -0.128 |
| TATCAGCA | -0.02 |
| CAAGATGA | -0.265 |
| ACCCAAGG | -0.0894 |
| TAACGGGA | 0.237 |
| ACGGAACT | 0.48 |
| AGAGATCA | -0.212 |
| CTGTAATC | -0.159 |
| ATCGAAAT | 0.00077 |
| CAAGTTCG | -0.0795 |
| AGGTGTCC | 0.0985 |
| AAGAAAGT | -0.0642 |
| GGTCATCA | -0.165 |
| ACTCACGC | -0.162 |
| CATCGTAA | -0.0162 |
| ACTCTATA | 0.064 |
| GTGCAATA | -0.174 |
| AAATGCGC | 0.168 |

| Sequence | PBM E-score |
| --- | --- |
| GACCCATA | 0.0151 |
| GATAATGA | -0.0464 |
| AACCGTTA | -0.238 |
| AACCGCCG | 0.247 |
| AACAGGAC | -0.0788 |
| AGACAATG | -0.163 |
| CATATATA | 0.0759 |
| GAGCTACA | -0.234 |
| AGGGACCC | -0.102 |
| CCTGAGAC | -0.15 |
| ACGATCGG | 0.16 |
| CGCCGTTC | 0.169 |
| TCCTTTCA | -0.0791 |
| AGTAAAGC | 0.00206 |
| CGTAAGTA | 0.00313 |
| AGATAAGC | -0.217 |
| CCCAAAGG | 0.0134 |
| CTCACATC | -0.107 |
| AGTAAGCC | -0.129 |
| ATTTCGCA | 0.18 |
